Assay results reported in PubChem BioAssay AID1159614 (National Center for Advancing Translational Sciences (NCATS), 2016).
In all, about 45,000 compounds went through this assay and about 65 (0.1%) were called active. The call rests on the fitted dose curve; in most records, active means well fitted activation curve with a large enough effect; inconclusive means small, poorly fitted or top-dose-only effect; inactive means no such curve, though single readings can be large or run the other way. The list shows a part of the results.

target: Galactocerebrosidase (Homo sapiens) (UniProt P54803); experiment: A Novel Cell-Based Assay to Identify Small Molecules for B -Galactocerebrosidase; settings: 145M-Twi-hGALC-G270D cells (Twitcher mouse brain line with human GALC G270D), HMU-beta-Gal fluorescence, 48 h; series mostly up to 57.5 µM; activation: at the top concentration; further: 0% is about no effect; nearly all actives have a fitted effect of over 65% in size
Sequence of UniProt P54803 (P54803 whole entry, looked up): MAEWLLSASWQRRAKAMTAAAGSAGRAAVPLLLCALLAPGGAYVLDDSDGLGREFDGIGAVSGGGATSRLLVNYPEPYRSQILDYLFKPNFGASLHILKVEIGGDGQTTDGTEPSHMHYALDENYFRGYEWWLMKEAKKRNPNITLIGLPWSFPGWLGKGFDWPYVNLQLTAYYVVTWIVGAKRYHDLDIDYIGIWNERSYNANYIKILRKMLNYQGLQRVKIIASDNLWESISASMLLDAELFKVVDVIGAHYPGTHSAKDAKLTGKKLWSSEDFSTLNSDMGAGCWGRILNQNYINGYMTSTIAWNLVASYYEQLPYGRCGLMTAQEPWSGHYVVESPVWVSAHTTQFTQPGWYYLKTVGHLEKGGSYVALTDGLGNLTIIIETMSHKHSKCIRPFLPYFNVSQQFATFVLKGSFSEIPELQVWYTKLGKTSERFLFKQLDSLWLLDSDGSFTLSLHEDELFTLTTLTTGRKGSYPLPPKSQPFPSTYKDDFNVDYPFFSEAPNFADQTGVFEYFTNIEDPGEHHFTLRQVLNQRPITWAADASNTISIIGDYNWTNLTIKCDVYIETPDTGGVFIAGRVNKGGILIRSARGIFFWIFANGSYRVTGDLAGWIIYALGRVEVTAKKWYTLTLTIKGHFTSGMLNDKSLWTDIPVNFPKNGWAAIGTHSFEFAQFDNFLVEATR
In short: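 Live 145M-Twi cells (Twitcher mouse brain-derived, GALC-null) stably expressing human GALC-G270D, with a wild-type GALC line, were compound-treated. Residual GALC activity was then read as fluorescence from 0.1 mM final HMU-β-gal at pH 5.2; higher signal means activation.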

Compound	activation
Cc1cccc(N2CCN(C(=O)c3ccc4c(c3)N(Cc3cccc(Cl)c3)C(=O)c3ccccc3S4=O)CC2C)c1 (centres undefined)	inactive: -16.6%
CCOc1cccc2sc(N3CCN(C(=O)C4CC4)CC3)nc12	inactive: -15.8%
O=C(NCC(c1ccc2c(c1)OCO2)N1CCOCC1)C(=O)Nc1cccc(Cl)c1 (centres undefined)	inactive: -18.3%
O=C(O)c1c(CNCc2cccc(F)c2)c2ccccc2n1Cc1ccccc1	inactive: -5.18%
Cc1cc(-c2ccc(C)c(S(=O)(=O)NCC3CCN(Cc4ccc(F)cc4)CC3)c2)on1	inactive: -3.88%
Fc1cccc(Cl)c1Cn1c(-c2cccs2)nc2ccccc21	inactive: -26.5%
COc1ccc(OC)c(CNC(=O)c2nn(C)c3c2CSc2ccccc2-3)c1	inactive: -6.95%
O=C(NCc1ccc(F)cc1)c1ccc2nc(N3CCCCC3)sc2c1	inactive: 7.4%
Cc1ccc(NC(=O)CCC(=O)N2Cc3ccccc3Oc3ncccc32)cc1F	inactive: -1.47%
CCOc1ccc(NC(=O)c2ccc3c(c2)CCN3S(=O)(=O)c2ccc(Cl)cc2)cc1	inactive: -9.77%
Cc1cccc(Cn2c(=O)n(CCC(=O)NCCc3ccc(Cl)cc3)c(=O)c3sccc32)c1	inactive: -0.804%
Cc1ccc(NC(=O)CCCc2nnc3n(C)c(=O)c4sccc4n23)cc1F	inactive: -5.29%
COc1ccc(-c2nc3c(c(SCC(=O)Nc4ccccc4F)n2)Cc2cc(C)ccc2O3)cc1	inactive: -6.42%
CC(=O)c1ccc(NC(=O)c2cc(S(=O)(=O)N3CCCCCC3)cn2C)cc1	inactive: 0.754%
Cc1ccc(C)c(N2CCN(C(=O)C3CCCN(Cc4nc(-c5cccc(Cl)c5)oc4C)C3)CC2)c1 (centres undefined)	inactive: -16.3%
CC1CCn2c(nc3cc(C(=O)NCc4ccccc4)ccc32)C1 (centres undefined)	inactive: -24.3%
O=C(CNC(=O)c1ccccc1)OCc1cc(=O)n2ccsc2n1	inactive: -11.9%
CCc1ccccc1NC(=O)CN1C(=O)c2ccccc2Sc2ncccc21	inactive: 2.1%
NC(=O)C1(N2CCCCC2)CCN(C(=O)Nc2ccc(F)cc2)CC1	inactive: -15.9%
CC(O)Cn1cnc2c1c(=O)n(C)c(=O)n2C (centres undefined)	inactive: -11.8%
CCCNC(=O)c1ccc2c(c1)sc1nc(-c3ccc(C)cc3)cn12	inactive: -8.93%
Cc1ccc(-c2cn(-c3cccc(Cl)c3)c(S(=O)(=O)CC(=O)Nc3cccc(C)c3)n2)cc1	inactive: -4.22%
CCOC(=O)c1c(S(=O)(=O)N2CCCC(C(=O)NCc3cccc(OC)c3)C2)c(C)n(C)c1C (centres undefined)	inactive: -18.7%
COc1ccc(CCNc2nc(-c3ccc(OC)c(OC)c3)cc(C(F)(F)F)n2)cc1OC	inactive: -2.08%
Cc1cccc(CS(=O)(=O)Cc2ccc(C(=O)NCCc3ccccc3)o2)c1	inactive: 0.634%

Compound	activation
Cc1ccc(N2CC(NC(=O)c3ccc(S(=O)(=O)N4CCCC4)cc3)CC2=O)cc1C (centres undefined)	inactive: -18.9%
CCn1cc(C(=O)NCCCN2CCCC(C)C2)c(=O)c2cc(S(=O)(=O)N(C)C3CCCCC3)ccc21 (centres undefined)	inactive: -12.2%
Cc1cc(C)cc(-n2ccn(CC(=O)Nc3cc(C)ccc3C)c(=O)c2=O)c1	inactive: -17.9%
O=C(NCc1ccccc1)C1CCN(S(=O)(=O)c2ccc3c(c2)CCCN3C(=O)C2CCC2)CC1	inactive: -17.6%
COc1ccc(-c2nnc(SCC(=O)NC3CCCC3)nc2-c2ccc(OC)c(OC)c2)cc1OC	inactive: -0.322%
CCOc1ccc(N2CC(c3nc4ccccc4n3Cc3ccccc3F)CC2=O)cc1 (centres undefined)	inactive: 1.5%
COc1cccc(OC)c1C(=O)Nc1cccc(-c2cn3ccsc3n2)c1	inactive: -4.31%
Cc1ccc(Cl)cc1N1CCN(C(=O)CCNS(=O)(=O)c2ccc3c(c2)CCN3C(=O)C2CC2)CC1	inactive: -29.3%
CCCCCSc1ncnc2c1sc1nc(N3CCOCC3)c3c(c12)CCCC3	inactive: -11.3%
Cc1ccc(NC(=O)NCc2cccn2Cc2ccccc2)c(C)c1	inactive: -13.7%
CCOc1ccc(NC(=O)c2ccc(F)c(S(=O)(=O)N(CC)Cc3ccccc3)c2)cc1	inactive: -13.4%
Cc1cccc(NC(=O)C(=O)NCC(c2cccnc2)N2CCc3ccccc3C2)c1C (centres undefined)	inactive: -12.5%
O=C(CCC1N=C2c3ccccc3N=C(SCc3cccc(F)c3)N2C1=O)NCc1cccs1 (centres undefined)	inactive: -19.5%
CCOC(=O)c1scc(-c2ccc(C)cc2)c1S(=O)(=O)N1CCN(c2ccccc2F)CC1	inactive: -13.3%
CCCCc1nn2c(=O)cc(COC(=O)C3CCCCC3)nc2s1	inactive: -13.7%
O=C(OOC(=O)c1ccccc1)c1ccccc1	inactive: -16.5%
Cc1nc2nc(SCC(=O)NC3CCC(C)CC3)nn2c(C)c1Cc1ccccc1 (centres undefined)	inactive: 13.7%
CCOc1ccc(OCC)c(NC(=O)c2ccc(-c3ccccc3)s2)c1	inactive: -26.4%
Nc1cc(=O)[nH]c(N)n1	inactive: -18.3%
CCOc1ccc(CCNC(=O)c2sc3ncccc3c2-n2cccc2)cc1OCC	inactive: -19.7%
COC(=O)c1ccc(-c2nc3cc(NC(C)=O)ccc3o2)cc1	inactive: 4.76%
COc1ccc(OC)c(NC(=O)c2cc(S(=O)(=O)NCCc3ccc(Cl)cc3)ccc2F)c1	inactive: -14.5%
CCC(C)NC(=O)Cn1c(=O)n(-c2ccc(C)c(C)c2)c(=O)c2c3c(sc21)CCCCC3 (centres undefined)	inactive: -16.2%
COc1ccc(-c2nnc(SCC(=O)Nc3ccc(C(C)C)cc3)nc2-c2ccc(OC)c(OC)c2)cc1OC	inactive: -6.82%
